Tested on: adult patients with uncontrolled gout
Experiment: Open-label study: Health Assessment Questionnaire (HAQ-DI, HAQ pain, HAQ health)
Format: in vivo, human
Settings: mITT Population
Method: Quality-of-Life Assessment: The HAQ was administered at any point during the study. The HAQ-DI is a self-report functional status instrument that can be filled out by a subject in less than 5 minutes and requires 1 minute to score. The index measures disability over the past week by asking a total of 20 questions covering 8 domains of function: dressing and grooming, arising, eating, walking, hygiene, reach, grip, and usual activities. There are at least 2 questions in each domain and the 8 domains represent a comprehensive set of functional activities. The HAQ-DI is calculated by scoring the answer to each question in the HAQ from 0 to 3, with 0 representing the ability to do without any difficulty, and 3 representing inability to do. Any activity that requires assistance from another individual or requires the use of an assistive device raises a 0 or 1 score to a 2. The highest score for each of the 8 domains is summed (range from 0 to 24) and divided by 8 to yield, on a scale with 25 possible values, a Functional Disability Index with a range from 0 to 3. The disability index is based on the number of domains answered and is computed only if the subject completes answers to at least 6 domains. The HAQ pain scale asks subjects to record how much pain they have had in the past week on a scale of 0 to 100, where zero represents “no pain” and 100 represents “severe pain”. The HAQ health scale is a measure of overall health. Subjects are asked to rate how well they are doing on a score of 0 to 100, where zero represents “very well” and 100 represents “very poor” health.
Quality of life was assessed using the HAQ.

[1] = Day 1, change from Methotrexate Baseline
[2] = Day 1, Methotrexate Baseline table
[3] = Early Termination Visit, change from Methotrexate Baseline
[4] = Early Termination Visit, change from Pegloticase Baseline
[5] = Early Termination Visit, Methotrexate Baseline table
[6] = Early Termination Visit, Pegloticase Baseline table
[7] = End of Pegloticase Infusions Visit, change from Methotrexate Baseline
[8] = End of Pegloticase Infusions Visit, Methotrexate Baseline table
[9] = End of Pegloticase Infusions Visit, Pegloticase Baseline table
[10] = Week 14, change from Methotrexate Baseline
[11] = Week 14, change from Pegloticase Baseline
[12] = Week 24, change from Methotrexate Baseline
[13] = Week 24, change from Pegloticase Baseline
[14] = Week 24, Methotrexate Baseline table
[15] = Week 24, Pegloticase Baseline table
[16] = Week 36, change from Methotrexate Baseline
[17] = Week 36, change from Pegloticase Baseline
[18] = Week 36, Methotrexate Baseline table
[19] = Week 36, Pegloticase Baseline table
[20] = Week 52/ET, change from Pegloticase Baseline
[21] = Week 52/ET, Methotrexate Baseline table
[22] = Week 52/ET, Pegloticase Baseline table

pegloticase
HAQ-DI, Change from Baseline, Median [1]: 0.0 | HAQ-Health, Change from Baseline, Median [1]: 10.0 | HAQ-Pain, Change from Baseline, Median [1]: 0.0 | HAQ-DI, Observed, Median [2]: 0.5 | HAQ-Pain, Observed, Median [2]: 40.0 | HAQ-DI, Change from Baseline, Median [3]: −0.3 | HAQ-Health, Change from Baseline, Median [3]: 8.0 | HAQ-Pain, Change from Baseline, Median [3]: 7.0 | HAQ-DI, Change from Baseline, Median [4]: 0.1 | HAQ-Health, Change from Baseline, Median [4]: −10.0 | HAQ-Pain, Change from Baseline, Median [4]: −10.0 | HAQ-DI, Observed, Median [5]: 0.6 | HAQ-Health, Observed, Median [5]: 10.0 | HAQ-Pain, Observed, Median [5]: 40.0 | HAQ-DI, Observed, Median [6]: 0.6 | HAQ-Health, Observed, Median [6]: 10.0 | HAQ-Pain, Observed, Median [6]: 40.0 | HAQ-DI, Change from Baseline, Median [7]: −0.1 | HAQ-Health, Change from Baseline, Mean (SD) [7]: −80.0 (0.00) | HAQ-Health, Change from Baseline, Median [7]: −80.0 | HAQ-DI, Change from Baseline, Median (End of Pegloticase Infusions Visit, change from Pegloticase Baseline): −0.1 | HAQ-DI, Observed, Median [8]: 0.1 | HAQ-Health, Observed, Mean (SD) [8]: 0.0 (0.00) | HAQ-Health, Observed, Median [8]: 0.0 | HAQ-Pain, Observed, Median [8]: 40.0 | HAQ-DI, Observed, Median [9]: 0.1 | HAQ-Health, Observed, Mean (SD) [9]: 0.0 (0.00) | HAQ-Health, Observed, Median [9]: 0.0 | HAQ-Pain, Observed, Median [9]: 40.0 | HAQ-DI, Change from Baseline, Median [10]: 0.0 | HAQ-Health, Change from Baseline, Median [10]: −5.0 | HAQ-DI, Change from Baseline, Median [11]: 0.0 | HAQ-Health, Change from Baseline, Median [11]: −1.0 | HAQ-DI, Observed, Median (Week 14, Methotrexate Baseline table): 0.5 | HAQ-DI, Observed, Median (Week 14, Pegloticase Baseline table): 0.5 | HAQ-DI, Change from Baseline, Median [12]: −0.1 | HAQ-Health, Change from Baseline, Median [12]: −40.0 | HAQ-Pain, Change from Baseline, Median [12]: −10.0 | HAQ-DI, Change from Baseline, Median [13]: −0.1 | HAQ-Health, Change from Baseline, Median [13]: −10.0 | HAQ-Pain, Change from Baseline, Median [13]: −10.0 | HAQ-DI, Observed, Median [14]: 0.1 | HAQ-Health, Observed, Median [14]: 10.0 | HAQ-Pain, Observed, Median [14]: 20.0 | HAQ-DI, Observed, Median [15]: 0.1 | HAQ-Health, Observed, Median [15]: 10.0 | HAQ-Pain, Observed, Median [15]: 20.0 | HAQ-DI, Change from Baseline, Median [16]: 0.0 | HAQ-Health, Change from Baseline, Median [16]: −10.0 | HAQ-Pain, Change from Baseline, Median [16]: −20.0 | HAQ-DI, Change from Baseline, Median [17]: −0.1 | HAQ-Health, Change from Baseline, Median [17]: −10.0 | HAQ-Pain, Change from Baseline, Median [17]: −20.0 | HAQ-DI, Observed, Median [18]: 0.1 | HAQ-Health, Observed, Median [18]: 10.0 | HAQ-Pain, Observed, Median [18]: 10.0 | HAQ-DI, Observed, Median [19]: 0.1 | HAQ-Health, Observed, Median [19]: 10.0 | HAQ-Pain, Observed, Median [19]: 10.0 | HAQ-DI, Change from Baseline, Median (Week 52/ET, change from Methotrexate Baseline): −0.1 | HAQ-DI, Change from Baseline, Median [20]: −0.1 | HAQ-Health, Change from Baseline, Median [20]: 5.0 | HAQ-DI, Observed, Median [21]: 0.3 | HAQ-Health, Observed, Median [21]: 80.0 | HAQ-Pain, Observed, Median [21]: 1.0 | HAQ-DI, Observed, Median [22]: 0.3 | HAQ-Health, Observed, Median [22]: 80.0 | HAQ-Pain, Observed, Median [22]: 1.0

Source: patent US20230301999A1, “METHODS OF TREATING GOUT” (Horizon Therapeutics USA, Inc., priority 2020, published 2023)
